# Results: PubChem BioAssay AID686979 (National Center for Advancing Translational Sciences (NCATS), 2013)
# Hit rate of the full screen: of about 420,000 compounds, about 50,000 (12%) were called active. Inconclusive results (about 26%) are left out. Calls follow the shape of the dose curve; as a rule, active = well fitted inhibition curve with a large enough effect; inconclusive = small, poorly fitted or top-dose-only effect; inactive = flat fitted curve, though single readings scatter. A structure can be active in one record and inactive in another. A number of entries come with more than one value. This list holds those alone. There may be further records. The records of an entry are repeats in other runs, samples, wells, individuals or studies.
# Assay: qHTS for Inhibitors of human tyrosyl-DNA phosphodiesterase 1 (TDP1): qHTS in cells in presence of CPT; also: nearly all actives have a fitted effect of over 55% in size
# Details: chicken DT40 Tdp1-/-;hTDP1 cells + 20 nM CPT, ATP luminescence, 48 h; series mostly up to 46.2 µM
# % is scaled to controls: 0 for no effect and ±100 for the full control effect; potency is read from the fitted curve at half-maximal effect.
row,SMILES,Potency
1,COc1c(C)c2c(c(O)c1C/C=C(\C)CCC(=O)O)C(=O)OC2,"active: 32.6, 580, 299, 114 nM and inactive [separate samples]"
